Over roughly 33,000 sequences, “E-score (-0.5 to 0.5)” has its median near -0.016; the highest 2% begin near 0.32. The list shows a part of the results.
Molecular target: T1, Stp1 (UniProt B3LFK1)
T1 sequence: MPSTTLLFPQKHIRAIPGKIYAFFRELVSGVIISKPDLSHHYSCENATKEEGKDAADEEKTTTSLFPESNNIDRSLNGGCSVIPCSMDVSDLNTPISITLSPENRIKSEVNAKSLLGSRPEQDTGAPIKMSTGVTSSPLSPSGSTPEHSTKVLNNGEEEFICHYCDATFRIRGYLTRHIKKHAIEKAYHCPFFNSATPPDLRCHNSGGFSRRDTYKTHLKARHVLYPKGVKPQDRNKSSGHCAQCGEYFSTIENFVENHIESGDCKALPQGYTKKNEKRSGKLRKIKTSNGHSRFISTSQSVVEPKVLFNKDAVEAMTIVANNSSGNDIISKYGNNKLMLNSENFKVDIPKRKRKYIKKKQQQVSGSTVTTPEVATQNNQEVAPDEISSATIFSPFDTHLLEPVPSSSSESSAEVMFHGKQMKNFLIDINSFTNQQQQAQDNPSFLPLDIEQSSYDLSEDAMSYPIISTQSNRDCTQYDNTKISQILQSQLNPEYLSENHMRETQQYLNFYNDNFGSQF
Experiment: PBM E-score (8-mer binding enrichment) (E-score (-0.5 to 0.5)); higher = stronger / more preferred TF binding; most listed sequences are background and not binding sites
Details: protein concentration: 200 nM; construct: GST-full length
Outline: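 The E-score, a modified Wilcoxon-Mann-Whitney statistic, was computed by the Universal PBM Analysis Suite for every ungapped eight-base word pooled with its reverse complement. Scans behind it were normalised with masliner after bound GST-tagged yeast transcription factors were detected with fluorescent anti-GST. The proteins, at about 100-200 nM, had been applied to universal all-10-mer Agilent arrays made double-stranded by primer extension.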

Sequence	PBM E-score
CCCGACCG	-0.289
GAATCGGA	0.122
GGCAACGA	0.239
CGAAGGGA	-0.126
ACGATACG	0.109
CGGTCTCC	-0.179
CCGCGGAA	0.183
CCCGGACC	-0.157
CACCGTGC	0.255
AACTGCAA	-0.0173
ATGTTCCC	-0.107
TCAGTACA	0.0749
GCCGTGCC	0.487
AATACCGT	0.171
CTCTGACA	-0.0167
AGCACCAC	-0.134
CTACGAAA	-0.00866
CATAAAGA	0.0776
CGACAATC	-0.161
AGGAAAGC	-0.151
ACTAAAGT	-0.0712
AGTCTTCC	-0.0735
GGTGAGAC	-0.138
GAATTTGC	0.1
CGGATGCA	-0.0536

Sequence	PBM E-score
ACCCCTAG	-0.233
ACGTATAA	0.113
ATTCCAGC	0.0208
CCCCGTCA	-0.177
ATAGGCGC	0.161
CTTGAAGC	0.0461
GAACTCAC	-0.0539
AGAACCCA	-0.163
ACACCAGT	-0.162
ACACAAAC	0.161
GCCCTGGA	-0.0883
CCCGATGC	-0.117
GCACTGAC	-0.0501
CCCAGACA	-0.22
CCACGAGA	-0.181
AGTCCTCC	-0.261
GAGGACCA	-0.192
GGCTATGA	-0.00825
TATTTGGA	-0.0571
CATAGGAA	-0.0906
CGGCGGAA	0.328
AATCTAAT	0.0617
GTGTGTTA	0.029
ATCCGTGC	0.41
ATGGACCA	-0.035

Sequence	PBM E-score
CGCGCAAC	0.0208
ACTATCCA	-0.131
AAATGGGG	-0.139
CCACGTTA	0.0417
ATAGGACA	-0.216
CTCCCTCA	-0.23
AACCCTTC	-0.11
ATCAATAG	-0.0562
AATTCGTC	0.207
CTAGAGTA	0.0523
ACGCTTGA	0.127
AGGCGCCG	0.462
AGTGTTAC	0.061
ACCGCATG	0.126
AAGGCCGT	0.358
CCGCAGCA	0.269
ATTACCTG	0.0903
CTTTTAAA	0.193
CAAAGGGC	0.157
ATGGGACG	-0.132
CATGCTCG	-0.0846
AAGGCTTA	-0.0391
GTAGTATA	0.121
AAATGGCA	0.246
AGAGTACG	0.0192

Sequence	PBM E-score
TCCGTTCA	0.0192
ATTCTAAA	0.109
CCATTGAC	0.0797
AGATTAAA	0.189
CCAGCCGC	0.125
GAGGGACA	-0.0502
ATGTTAAT	0.117
ATCGGAGC	-0.145
ATAAGGGA	-0.128
CGAAGGAA	0.0454
AGGCTCGC	-0.0985
AACGTAAT	0.0445
CTGTTAAG	-0.0727
ATTGTTAA	-0.0126
CACCGCTA	-0.178
CGGCCAAA	0.145
GTCGATTA	0.00519
TCACGTAA	-0.021
GGTTACCA	-0.00326
TCCATGAA	0.0963
CGAGCAAC	0.213
GCCCCCGC	-0.0565
ACGGCCAT	0.235
GACGCTGA	-0.183
AGCAAGCA	-0.192

Sequence	PBM E-score
GCTTGACA	0.18
AACTGTGT	-0.00345
TAGAGGAA	-0.158
AAAGCGCT	0.16
ATCACGCA	0.028
ACGCGGAT	0.236
ATTTCCCG	0.221
CTGGTCGC	0.0352
CGTCGGGA	-0.134
ATTGGCAA	0.0625
GTAGCGGA	0.0599
ACTAAGGC	0.177
CCGTGTTA	0.262
ACCTTTAG	-0.0106
ATGTACTA	0.155
CCAATCAG	-0.218
AGCGGCAG	0.301
CGTCACTA	0.0552
CCTGTTAA	-0.08
ATAGAACA	0.0308
AGAGTGTA	-0.185
AAAGGTCT	-0.012
AATACACA	0.0147
CCCTCCGC	-0.288
CGGCCCAC	-0.051

Sequence	PBM E-score
GGCATCGA	0.327
GAAGCCGA	-0.0348
TAGGGATA	-0.0306
AGACGCCG	0.405
ACTTCAGA	-0.0204
TAGCGCCA	0.118
GACAACCA	0.0428
CGGTCAAC	-0.0662
CAACTGAG	0.0666
CCTCTTAG	0.183
CTGGTTAA	0.111
GGAATAAC	0.0206
ATGTGGAA	0.062
CACTCGCG	0.219
GCTGGGCC	-0.149
CGGGAATC	-0.0825
TATTCACA	0.0764
TAGTTTGA	0.106
CTCGTACA	0.141
AACCGGTG	-0.075
ACGTGTGA	-0.0117
ATCGCGTA	-0.111
AACTCTTC	-0.189
TAAACGTA	-0.0463
ATAACGCC	0.316

Sequence	PBM E-score
ACTGTTCG	0.137
CCTCCTTA	-0.217
AGTAATTA	-0.0328
AGACGAGG	-0.0915
CTATCCCA	-0.202
ACCTATGG	-0.0452
GAGAAACC	-0.185
CCCCGTAG	-0.0863
CTCAATGA	-0.0457
CACTTCGG	-0.0156
GGTTCTCA	-0.0635
ATTATATG	0.251
AGTGGCAG	0.0799
CATCCAAA	0.0865
CGTGCGAC	0.0732
TAGGACCA	-0.182
ACCTACCC	-0.194
CCAATATC	-0.178
ATCTCACA	-0.102
GTCCGGGA	-0.0291
ATAATTCC	-0.0659
TGCGAAAA	0.316
